# Out of some 340,000 compounds screened, about 6,900 (2%) were called active. No stated cut-off is given here; in the data, active means inhibition above about 30%; inactive means below that, where a call was filed. The entries are a selection whose mix differs from that of the whole data set. Where no call is shown, the source filed none.
# Molecular target: D(2) dopamine receptor (Homo sapiens) (UniProt P14416)
# Experiment: HTS Assay for Allosteric Antagonists of the Human D2 Dopamine Receptor: Primary Screen for Antagonists; further: 0% is about no effect
# Details: HEK293 TREx D2 cells, calcium flux, dopamine EC80; at 10 µM; stronger effect = higher value
# In short: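 Measurement of antagonist activity uses fluorescent calcium dye in inducible HEK293 T-REx D2 cells: 10 s baseline, compound addition with 180 s read, EC80 dopamine addition with a further 180 s read.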
# UniProt P14416, sequence (P14416 whole entry, looked up): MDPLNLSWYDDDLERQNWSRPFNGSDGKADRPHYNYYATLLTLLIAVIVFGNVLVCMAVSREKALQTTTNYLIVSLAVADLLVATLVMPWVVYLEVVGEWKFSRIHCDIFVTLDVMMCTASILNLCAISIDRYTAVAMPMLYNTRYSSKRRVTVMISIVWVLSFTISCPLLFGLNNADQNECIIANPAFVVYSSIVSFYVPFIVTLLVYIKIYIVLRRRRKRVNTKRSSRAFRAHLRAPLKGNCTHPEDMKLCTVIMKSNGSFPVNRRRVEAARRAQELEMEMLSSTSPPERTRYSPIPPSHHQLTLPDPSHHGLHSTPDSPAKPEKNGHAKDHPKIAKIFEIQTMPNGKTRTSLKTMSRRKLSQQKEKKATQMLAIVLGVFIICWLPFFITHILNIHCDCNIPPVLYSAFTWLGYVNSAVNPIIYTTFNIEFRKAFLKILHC
row,Structure (SMILES),inhibition
1,Cc1cc(C)cc(NC(=O)N2CCN3CCCCC3C2)c1 (stereo unspecified),1.46%
2,O=C(NC1CCCCC1)c1c[nH]c2ccc(S(=O)(=O)Nc3ccccc3F)cc2c1=O,-2.79%
3,CCOC(=O)c1ccc(NC(=O)c2c(NCc3sccc3C)sc3c2CCCCC3)cc1,-8.17%
4,CC(C)(C)c1ccc(C(=O)NC(Cc2c[nH]c3ccccc23)C(=O)OCC(=O)c2ccccc2)cc1 (stereo unspecified),-23.9%
5,COc1ccc(-c2[nH]ncc2CN2CCN(c3ccccn3)CC2)c(OC)c1,active: 57.4%
6,COc1ccc(C(=O)C2CCCN(C/C=C/c3ccccc3OC)C2)c(OC)c1 (stereo unspecified),active: 85.6%
7,CC1CCCN(c2cc3c(cc2F)c(=O)c(S(=O)(=O)c2cccc(Cl)c2)cn3C)C1 (stereo unspecified),4.87%
8,COc1ccc(Cn2c(=O)[nH]c3cc(C(=O)N4CCN(c5cccc(OC)c5)CC4)ccc3c2=O)cc1,-6.53%
9,COC(CNC(=S)Nc1ccc([N+](=O)[O-])cc1)OC,active: 35.4%
10,CCc1ccc(NC(=O)CSc2nc3ccccc3nc2Cc2ccccc2OC)cc1,-13.4%
11,Cc1cccc(OCC(=O)Nc2ccc(-c3nc4cc(C)ccc4o3)c(O)c2)c1,6.75%
12,O=C(NC(=S)Nc1nc2c(s1)CCCC2)c1ccccc1,active: 34.8%
13,Cc1cccc(C(=O)NC2CC3CCCC(C2)N3Cc2ccccc2)c1 (stereo unspecified),active: 81.5%
14,CCC1CN(C(=O)N2CCC(C(=O)NCCC3=CCCCC3)CC2)c2cc(C)ccc2O1 (stereo unspecified),-10.9%
15,CCn1cc2nc(SCc3ccc(C)cc3)n(CCc3ccccc3)c(=O)c2n1,-5.88%
16,COc1ccc(S(=O)(=O)N(CC(=O)N(C)Cc2ccccc2)c2ccc(Cl)cc2)cc1,-16.9%
17,Cc1ccc(OCC(=O)Nc2ccc(Cl)c(-c3nc4ccccc4[nH]3)c2)cc1C,-9.15%
18,Cc1ccc(-c2nc3ccccn3c2Nc2c(C)cccc2C)o1,19%
19,CC1CCc2c(sc3nnn(Cc4ccccc4)c(=O)c23)C1 (stereo unspecified),-8.99%
20,Cc1ccc(NS(=O)(=O)c2ccc3[nH]c4c(c3c2)CCCC4)c(C)c1,-10.3%
21,Cc1nnc(N2CCCC(C(=O)Nc3ccccc3C(F)(F)F)C2)c2nn(-c3ccccc3)c(C)c12 (stereo unspecified),3.99%

row,Structure (SMILES),inhibition
1,CCOc1ccccc1N1CC(c2nc3ccccc3n2CCOc2ccc(OC)cc2)CC1=O (stereo unspecified),9.43%
2,COc1ccc(CNC(=O)c2cc(-c3cccs3)nc3ccccc23)c(OC)c1,-11.4%
3,CCOC(=O)c1sc(NC(=O)c2nc3ncccn3n2)c(C(=O)OC(C)C)c1C,-1.5%
4,Cc1ccc(C)c(N2CCN(C(=O)c3cc4c(=O)n(Cc5cccnc5)ccc4nc3C)CC2)c1,6.82%
5,O=C(c1ccc(Cl)cc1)N1CCCCC1CCN1CCOCC1 (stereo unspecified),-11.3%
6,Cc1cccc(CSc2nc3cccnc3n2Cc2ccc(C(=O)NCc3cccs3)cc2)c1,2.11%
7,O=C(CCN1CCc2ccccc2C1)Nc1cccc(F)c1,active: 60.1%
8,Cc1cc(C)n(-c2nc3cc(Cl)c(Cl)cc3nc2Nc2ccc(F)cc2C)n1,-0.573%
9,Cc1cccc(C(=O)Nc2c(-c3ccc(F)cc3)nc3ccccn23)c1,-14.1%
10,CCn1c(=O)c2cc(C(=O)Nc3cc(C)c(Cl)cc3OC)sc2c2ccccc21,-9.84%
11,Cc1ccc(NC(=O)c2cc3c(Cl)nc4ccc(C)cc4c3s2)c(Cl)c1,4.58%
12,COc1ccc(NC(=O)CSc2nc3ccccc3n2CC(=O)N2CCCC(C)C2)cc1 (stereo unspecified),12.9%
13,CCOC(=O)c1c(C)[nH]c(C2=NNC(=NC(C)COC)SC2)c1C (stereo unspecified),active: 36%
14,CC(C)Cn1c(=O)c2sccc2n2c(CCCC(=O)NCC(C)c3ccccc3)nnc12 (stereo unspecified),11.3%
15,O=C(CSc1oc(-c2ccccc2)nc1S(=O)(=O)c1ccc(Br)cc1)NC1CCCCC1,-13%
16,CC(=O)Nc1nonc1-c1nnc(SCc2ccccc2C)n1C,14.3%
17,COc1ccc(CNC(=O)c2ccc3c(c2)N(Cc2ccccc2F)C(=O)c2ccccc2S3=O)cc1 (stereo unspecified),-2.61%
18,Cc1ccc(C2=Nc3ccccc3N(CC(=O)NCc3ccc(Cl)cc3)C(=O)C2)cc1C,-5.04%
19,COc1ccc(OC)c(NC(=O)Cc2c(C(=O)O)[nH]c3ccc(Cl)cc23)c1,14.8%
20,CCc1ccccc1NC(=O)Cc1ccc(-n2c(C)nc3cccnc32)cc1,8.94%
21,COc1cccc(-c2ccc3c(N)c(C(=O)Nc4ccc(Cl)cc4F)sc3n2)c1,12.1%

row,Structure (SMILES),inhibition
1,CCc1ccc(Nc2nn3c(=O)c4cc5c(cc4nc3s2)OCO5)cc1,-6.51%
2,COC(=O)c1cc2oc3ccccc3c2n1Cc1nc(-c2cccc(Cl)c2)oc1C,-10.9%
3,Cc1ccc(-n2nc3c(N4CCC(C(=O)N5CCC(C)CC5)CC4)nnc(C)c3c2C)cc1,3.71%
4,COc1cc(OC)cc(C(=O)Nc2ccc(S(=O)(=O)N3CCCCC3c3cccnc3)cc2)c1 (stereo unspecified),20.3%
5,O=C(Nc1cccc(Cl)c1Cl)c1cc(S(=O)(=O)N2CCC3(CC2)OCCO3)ccc1F,7.29%
6,Cc1cc(C)c(Cn2c3ccccc3c3cnn(CC(=O)NC4CCCCCC4)c(=O)c32)c(C)c1,-6.46%
7,COc1ccc(Cn2cc(C(=O)c3ccc(Cl)cc3)c(=O)c3cc4c(cc32)OCO4)cc1,-1.03%
8,CCOC(=O)c1ccc(NC(=O)c2ccc3c(c2)c(C)c(C)n3Cc2ccc(F)cc2)cc1,-3.74%
9,CCOC(=O)C1(C)C=C(Nc2ccc(OC)cc2)C(=O)N1c1ccccc1 (stereo unspecified),-15.5%
10,COc1ccccc1NC(=O)c1oc2ccccc2c1NC(=O)c1c(F)cccc1F,-16.8%
11,Cc1cc(C)cc(NC(=O)C2CCCN2S(=O)(=O)c2ccc3c(c2)C(C)(C)C(=O)N3C)c1 (stereo unspecified),-7.82%
12,COc1ccc(NC(=O)CSc2ncnc3sc(C)cc23)cc1,active: 31.7%
13,COc1ccc(C(=O)NCCn2cc(SCC(=O)Nc3ccccc3)c3ccccc32)cc1OC,3.78%
14,CN1CCc2ccccc2Cc2[nH]c3ccccc3c2CC1,active: 72%
15,Cn1c(=O)n(C)c2cc(N3CCCCC3)c(NC(=O)c3ccc(Cl)cc3)cc21,-17.7%
16,COc1cc(OC)c(NC(=O)c2c(C)nn(-c3ccc(C)cc3)c2-n2cccc2)cc1Cl,-8.74%
17,O=C(CSCC(=O)NC1CC1)Nc1ccc2ccccc2c1,active: 34.7%
18,CCCCn1cc(S(=O)(=O)c2ccc(CC)cc2)c(=O)c2cc(F)c(N3CCCC(C)C3)cc21 (stereo unspecified),0.987%
19,COc1ccccc1CCNC(=O)c1ccc(NC(=O)N2CC(C)Sc3ccccc32)cc1 (stereo unspecified),-6.77%

# — PubChem BioAssay AID485344 (National Center for Advancing Translational Sciences (NCATS), 2010)
